The source of these data is PubChem BioAssay AID463173 (ICCB-Longwood Screening Facility, Harvard Medical School, 2010).

Hit rate of the full screen: of about 52,000 compounds, about 1,700 (3.3%) were called active. Cut-off read from the data, not from the text of the source: active = survival mostly below about 52% (no sharp cut-off); inactive = mostly above about 56%. This is one part of the list.

This test has as its system Wild type. Briefly: S. aureus survival, RN4220 and DeltatarO strains – OD600, teichoic acid synthesis inhibitors, primary screen (AID 463173). The following applies: S. aureus RN4220 wild type/DeltatarO growth, OD600, 18 h, stronger effect = lower value, screened at 18.75 µg/mL (by protocol).
Take `COc1ccc2c(Sc3ccccc3)c(C(=O)NCc3ccc(OC(C)C)cc3)[nH]c2c1`: the survival was inactive: 125%. The figure for `CCOc1ccc(-n2c(SCC(=O)NCc3ccco3)nc3c([nH]c4ccccc43)c2=O)cc1` is active: 10%.

Consider `Cc1cccc(-c2nnc3n(CCc4ccccc4)c(=O)c4ccccc4n23)c1`, for which the survival is inactive: 56%. The figure for `Cc1ccc(C)c(NC(=O)N2CCN(C)c3ncccc32)c1` is inactive: 72%; for `Cc1ccc(Cn2ccnc2SCC(=O)Nc2ccc3c(c2)OCO3)cc1` it is inactive: 101%; for `Cc1ccc(NC(=O)c2sc(-n3nc(C)c(Cc4ccc(Cl)cc4)c3C)nc2C)cc1` it is inactive: 77%. For `Cc1ccc(-n2c3nc(=O)[nH]c(=O)c-3cc3c(Cl)cccc32)cc1`, the survival was inactive: 95%. With `COc1ccc(Cl)cc1NC(=O)Cn1c(=O)n(Cc2ccco2)c(=O)c2ccc(C(=O)NC3CCCC3)cc21`, the survival is inactive: 87%. On to `CCOc1ccc(CNC(=O)c2ccc(-c3nc(CSc4ccc(C)cc4)c(C)o3)cc2)cc1`, for which the survival is inactive: 63%. As for `CCN(Cc1ccccc1)C(=O)Cn1c(=O)n(-c2ccc(OC)cc2OC)c(=O)c2c(C)c(C)sc21`, the survival was inactive: 90%. As for `CCOc1ccc(NC(=O)c2c(NC(=O)Cc3ccccc3)sc3c2CCCC3)cc1`, the survival is inactive: 69%.

For the compound `Cc1ccc(CN2CCSc3ccc(C(=O)NCCc4ccccc4)cc32)cc1`, the survival is inactive: 96%.

For `COc1ccc(Cl)cc1NC(=O)C1CCN(c2nnc(C)c3c(C)n(-c4ccccc4)nc23)CC1`, the survival is inactive: 66%. As to `Cc1c(CC(=O)N2CCCCC2)c(=O)oc2c(C)c3occ(C(C)(C)C)c3cc12`, the survival was inactive: 81%. In the case of `CCCCOc1ccc(C(C)NC(=O)c2cccc(Nc3nc4ccccc4n4nnnc34)c2)cc1` (configuration not stated) it was inactive: 76%; in that of `CCOc1ccc(CCNC(=O)CSc2n[nH]c(-c3ccccc3)n2)cc1OCC`, inactive: 68%; in that of `CN(C)C=NC(=O)c1cc2c(n(-c3ccccc3)c1=O)CC(C)(C)CC2=O`, inactive: 77%. For `O=c1n(Cc2cccc(F)c2)c2ccccc2c2nc(-c3ccccc3)nn12`, the survival was inactive: 34%. Consider `COc1cccc(CSc2nc3n(n2)C(c2cccc(F)c2)C(C(=O)Nc2ccccc2C)=C(C)N3)c1` (configuration not stated), for which the survival was inactive: 88%. With `Cc1ccc(O)c(NC(=O)c2cc(-c3ccc4c(c3)OCO4)on2)c1`, the survival is inactive: 88%. As for `Cc1cccc(N2CCN(C(=O)c3ccc(CS(=O)c4cccc(Cl)c4)o3)CC2)c1C` (configuration not stated), the survival is inactive: 63%.

As to `COc1ccc(CN(C(=O)Nc2cccc(Cl)c2)c2ccccn2)cc1OC`, the survival was inactive: 81%. As for `Cc1ccc(-c2[nH]c3ccccc3c2SCCNC(=O)c2ccc(S(=O)(=O)N(C)C)cc2)cc1`, the survival was inactive: 127%.

For the compound `COCCNC(=O)CCC(=O)N1Cc2cccc(OC)c2Oc2ncccc21`, the survival was inactive: 113%. For the compound `CCSc1nnc2c(n1)OC(c1ccc(C)cc1)N(C(C)=O)c1ccccc1-2` (configuration not stated), the survival was inactive: 71%. For the compound `COc1ccc(CNC(=O)CCCN2C(=O)CSc3c2c(C)nn3-c2ccccc2)c(OC)c1`, the survival is inactive: 71%. In the case of `COc1ccc(Cl)cc1NC(=O)CCS(=O)(=O)c1cccc2nonc12` it was inactive: 120%. As to `Cc1ccc(NC(=O)C(=O)NCC(c2cccnc2)N2CCOCC2)cc1Cl` (configuration not stated), the survival was inactive: 81%. The figure for `CCOC(=O)C1=NNC2C(=O)N(CC)C(=O)C12` (configuration not stated) is inactive: 109%; for `CC(=O)NC1(c2ccccc2)CCN(C(=O)c2cccs2)CC1` it is inactive: 105%.

For the compound `CCc1ccc(NC(=O)Cn2ccn(Cc3ccccc3OC)c(=O)c2=O)cc1`, the survival is inactive: 87%. With `COc1cccc(-c2ccc3c(N)c(C(=O)c4ccc(Br)cc4)sc3n2)c1`, the survival was inactive: 38%. On to `O=C(Cc1ccc(Cl)cc1)Nc1nnc2n1CCS2`, for which the survival is inactive: 73%.

Regarding `COc1ccc(C)cc1NC(=O)CCc1c(C)nn(-c2ccc(N3CCOCC3)nn2)c1C`, the survival is inactive: 74%. In the case of `Cc1ccc(NC(=O)c2c(C)oc3ncnc(N4CCCCC4)c23)cc1Cl`, the survival is inactive: 80%. Turning to `Cc1ccc(-n2nc(C)c3c(C)cc(=O)n(CC(=O)N4CCCc5ccccc54)c32)cc1`, the survival is inactive: 74%. On to `CCn1cc(S(=O)(=O)c2cccc(Cl)c2)c(=O)c2cc(F)c(N3CCC(C)CC3)cc21`, for which the survival is inactive: 57%. `O=C(COCc1cc(-c2cccs2)on1)NCc1ccc(Cl)cc1`: the survival is inactive: 75%. For `Cc1cc(C)c(NS(=O)(=O)c2ccc(-c3cnc(C4CC4)o3)cc2)c(C)c1`, the survival is inactive: 95%. Turning to `COc1ccc(NC(=O)C(=O)NCC2(c3ccc(OC)c(OC)c3)CCCC2)cc1`, the survival is inactive: 93%. Consider `COc1cccc(CNC(=O)Cc2csc3ccccc23)c1OC`, for which the survival was inactive: 82%. On to `CCCOC(=O)c1c(NC(=O)C2c3ccccc3Oc3ccccc32)sc2c1CCCC2`, for which the survival was inactive: 73%. As to `COc1ccc(NC(=O)CCCSc2nc(-c3ccco3)cc(C(F)(F)F)n2)c(OC)c1`, the survival is inactive: 38%. For `COc1cccc(OCc2nc3ccccc3n2Cc2ccccc2C)c1`, the survival was inactive: 87%. As to `CCOc1ccc(N(CC)C(=O)C2CCN(S(=O)(=O)c3cccc4nonc34)CC2)cc1`, the survival is inactive: 82%. The figure for `COc1ccc(CCC(=O)NC2CC(=O)N(c3cccc(F)c3)C2)cc1` (configuration not stated) is inactive: 132%; for `N/C(=N/c1nc2ccccc2o1)NC(=O)C(Cc1ccccc1)N1C(=O)c2ccccc2C1=O` (configuration not stated) it is inactive: 132%. As to `CN(CC(=O)O)C(=O)c1ccco1`, the survival was inactive: 104%.

With `CCC(=O)n1nc(-c2cccnc2)nc1NCc1ccc(F)cc1`, the survival is inactive: 87%. Take `N#CC(C#N)=C(C(C#N)=C1Nc2ccccc2N1)c1ccccc1F`: the survival was inactive: 79%. Regarding `Clc1cccc(CNc2cc(-c3ccccc3)nc3nncn23)c1`, the survival was inactive: 96%. As for `CCc1ccccc1NC(=O)Cn1nc(C(F)(F)F)c2c1CCCC2`, the survival is inactive: 84%. Regarding `Cc1cc(C)c(NC(=O)CCn2c(=O)c3cccn3c3cccnc32)c(C)c1`, the survival was inactive: 95%.

In the case of `COc1ccc(CCNC(=O)c2ccc3c(c2)OCO3)cc1`, the survival is inactive: 112%.

Turning to `OCCN1CCN(C(c2ccccc2Cl)c2sc3nc(-c4ccco4)nn3c2O)CC1` (configuration not stated), the survival was inactive: 65%. `Cc1cccc(N2CCn3c2nc2c3c(=O)n(CCc3ccccc3)c(=O)n2C)c1`: the survival is inactive: 110%. `COc1cccc(-c2cn3c(n2)sc2cc(C(=O)NCCc4ccc(OC)c(OC)c4)ccc23)c1`: the survival is inactive: 43%.
